From patent US20250042995A1 (AKESO BIOPHARMA, published 2025) come the findings set out here.

In assay [1] the target is T1, human LAG3-mFc (human, UniProt P18627 23-450).
T1 construct: also called antigen human LAG3-mFc; not shown: mFc: Fc protein fragment of mouse IgG
T1 sequence (looked up): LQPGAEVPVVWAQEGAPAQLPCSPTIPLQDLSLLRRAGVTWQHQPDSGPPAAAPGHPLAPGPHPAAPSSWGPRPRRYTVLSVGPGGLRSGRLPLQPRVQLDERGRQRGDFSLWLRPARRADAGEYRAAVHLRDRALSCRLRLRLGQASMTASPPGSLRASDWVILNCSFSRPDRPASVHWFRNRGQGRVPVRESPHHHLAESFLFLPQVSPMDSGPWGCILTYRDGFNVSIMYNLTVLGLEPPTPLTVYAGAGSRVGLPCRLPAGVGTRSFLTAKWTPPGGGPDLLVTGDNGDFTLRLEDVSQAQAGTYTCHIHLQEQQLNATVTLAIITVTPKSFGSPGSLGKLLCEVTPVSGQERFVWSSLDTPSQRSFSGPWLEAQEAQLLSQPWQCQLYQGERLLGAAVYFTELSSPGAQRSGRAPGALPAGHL
Nature of the assay: competitive flow cytometry: antibody titrated against 3 nM LAG3-mFc binding to MHC II on Raji cells. The method, then:
Raji cells (medium: 1640+10% FBS) (Cell Resource Center, Shanghai Institutes for Biological Sciences, Chinese Academy of Sciences, Cat. No. TCHu 44) were added into EP tubes at 300,000 cells per sample. 1000 μL of 1% PBSA (PBS containing 1% BSA) was added. The mixture was centrifuged at 600×g for 5 min, and the supernatant was discarded. […] The mixture was mixed well and pre-incubated on ice for 30 min. 100 μL of the pre-incubated mixture of antibody and protein was added to the sample. The mixture was mixed well and incubated on ice in the dark for 1 h; 200 μL of 1% PBSA was added, and the mixture was centrifuged at 600×g for 5 min, followed by removal of the supernatant, and then washed twice; 100 μL of an APC anti mouse antibody (purchased from Biolegend, Cat. No. 405308) (diluted at a 1:400 ratio) was added, and the mixture was mixed well and incubated on ice in the dark for 40 min; 200 μL of 1% PBSA was added, and the mixture was centrifuged at 600×g for 5 min, followed by removal of the supernatant; 200 μL of Washing Buffer was added into each tube to resuspend the cells, and then the suspension was transferred to a sample loading tube for testing on a flow cytometer.
(A flow cytometer gives signals particle by particle.)

The target in assay [2] is T2, human LAG3 (full length) expressed on cells (human, UniProt P18627 23-525).
T2 construct: whole, on cells; also called huLAG3FL
T2 sequence (looked up): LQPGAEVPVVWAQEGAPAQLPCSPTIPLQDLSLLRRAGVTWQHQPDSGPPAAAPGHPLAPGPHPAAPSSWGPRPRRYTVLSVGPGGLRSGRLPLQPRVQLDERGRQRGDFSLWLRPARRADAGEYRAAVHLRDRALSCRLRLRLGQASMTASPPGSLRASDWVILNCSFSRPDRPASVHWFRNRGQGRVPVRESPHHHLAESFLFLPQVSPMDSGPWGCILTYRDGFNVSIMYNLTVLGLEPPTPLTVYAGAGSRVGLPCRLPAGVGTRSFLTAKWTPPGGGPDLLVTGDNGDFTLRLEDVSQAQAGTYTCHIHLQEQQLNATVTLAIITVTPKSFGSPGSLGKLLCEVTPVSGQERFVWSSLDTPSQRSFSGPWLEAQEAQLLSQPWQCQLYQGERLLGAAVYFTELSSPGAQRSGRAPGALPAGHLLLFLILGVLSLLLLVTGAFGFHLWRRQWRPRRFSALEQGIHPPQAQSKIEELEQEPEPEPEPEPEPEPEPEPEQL
Nature of the assay: flow cytometry on 293T-LAG3 cells. The method, then:
After centrifugation and washing several times with 1% PBSA, 100 μL of FITC goat anti-human IgG (purchased from Jackson, Cat. No. 109-095-098) (diluted at a 1:500 ratio) was added into each tube, and the mixture was incubated on ice in the dark for 40 min. After washing once with 1% PBSA, 200 μL of 1% PBSA was added to resuspend the cells. Fluorescence signals were detected with FITC channel on a flow cytometer.

The target in assay [3] is T1, human LAG3-mFc. The experiment in a line: ELISA, human LAG3-mFc coated 2 ug/mL. The method, then:
Then the ELISA plate coated with the antigen was washed once with PBST and then blocked with a PBS solution containing 1% BSA as a blocking solution at 37° C. for 2 h. After blocking, the ELISA plate was washed 3 times with PBST. The ELISA plate containing the test antibodies was incubated at 37° C. for 30 min and then washed 3 times with PBST. After washing, a working solution of an HRP-labeled goat anti-human IgG (H+L) (Jackson, Cat. No. 109-035-088) secondary antibody diluted at a ratio of 1:5000 was added, and then the plate was incubated at 37° C. for 30 min. After incubation, the plate was washed 4 times with PBST, TMB (Neogen, 308177) was added for chromogenesis in the dark for 5 min, and then a stop solution was added to terminate the chromogenic reaction. The ELISA plate was put into an ELISA plate reader immediately, and the OD value of each well in the ELISA plate was read at 450 nm. The data were analyzed and processed by SoftMax Pro 6.2.1.
A general note: ELISA stands for enzyme-linked immunosorbent assay.

B1: H7L8(hG4WT) (antibody, human IgG4 S228P, kappa)
heavy: QVQLQQWGAGLLKPSETLSLTCAVYGGSISDYYWNWIRQPPGKGLEWIGEINHRGTTNSNPSLKSRVTLSLDTSKNQFSLKLRSVTAADTAVYYCAFGYSDYEYDWFDPWGQGTLVTVSSASTKGPSVFPLAPCSRSTSESTAALGCLVKDYFPEPVTVSWNSGALTSGVHTFPAVLQSSGLYSLSSVVTVPSSSLGTKTYTCNVDHKPSNTKVDKRV[skipping human IgG4 Fc with S228P (EU numbers)]
light: EIVLTQSPATLSLSPGERATLSCRASQTISSYLAWYQQKPGQAPRLLIYDASNRATGIPARFSGSGSGTDFTLTISSLEPEDFAVYYCQQRSNWPITFGQGTNLEIKRTVAAPSVFIFPPSDEQLKSGTASVVCLLNNFYPREAKVQWKVDNALQSGNSQESVTEQDSKDSTYSLSSTLTLSKADYEKHKVYACEVTHQGLSSPVTKSFNRGEC
notes: Humanized anti-LAG3 IgG4 (Ig gamma-4 chain C region) with human kappa constant region
For B1, the EC50 (as a rule, the midpoint of the concentration-response curve) was determined as 1.34 nM with human LAG3-mFc [1], 4.93 nM in assay [2] and 0.131 nM in the assay with human LAG3-mFc [3].
